Source: US20240010684A1, “MASP INHIBITORY COMPOUNDS AND USES THEREOF” (BAYER AKTIENGESELLSCHAFT, priority 2020, published 2024)
pIC50: −log10 of the molar value. At least one peptide structure holds a part that was inferred or is arguable (an end, a ring closure or a residue). *1 amine or outer side, *2 acyl side, *3 side chain or, on linkers, in order; H or OH if unused. Where a SMILES comes first, the peptide text is derived from it. Bridges are numbered along the chain shown (N, C = ends). [ ]: non-standard residue; d: D form. X6 = O=C(CCC(=O)[*:1])NCCCOCCOCCOCCCN[*:2]; Oic = O=C(O)[C@@H]1C[C@@H]2CCCC[C@@H]2N1; tBuAla = CC(C)(C)C[C@H](N)C(=O)O; Pen = CC(C)(S)[C@H](N)C(=O)O; NMeC = CN[C@@H](CS)C(=O)O; Orn = NCCC[C@H](N)C(=O)O; Abu = CC[C@H](N)C(=O)O; PEG2 = NCCOCCOCCC(=O)O; Ahx = NCCCCCC(=O)O

test system: Human C3-DEPOSITION SERUM; assay: C3 deposition assay, human serum on mannan-coated plates; assay type: biochemical; settings: Average IC50
Procedure: 3. C3 Deposition Assay (Human, Rat, Mouse, Dog, Pig))
The C3 deposition assay was conducted essentially as described (reference). Multiwell plates (Greiner-Nunc 384 Maxi Sorp #464718) were coated over night with Mannan from Saccharomyces cerevisiae (Sigma M7504, 10 μg/mL in 0.05 M carbonate-bicarbonate buffer, pH 9.6) at 4° C. Wells were washed three times with TBS and subsequently incubated for 2 hours with 50 μL of 1% bovine serum albumin (BSA) in Tris-buffered saline (TBS) at 37° C. in order to block non-specific binding. After this step and each of the following incubation steps wells were washed three times with C3 wash buffer (TBS; 0.05% Tween 20; 5 mM CaCl2). […] When appropriately developed the color reaction was stopped by addition of 25 μL of stop solution (Sigma S5814) and quantified on a photometer by measuring absorption at a wavelength of 450 nm. Antibodies were diluted in C3 wash buffer supplemented with 0.5% BSA.

First: CC[C@@H]1NC(=O)CCCCCNC(=O)[C@H](CC(=O)O)NC(=O)[C@@H]2CCCN2C(=O)[C@H]([C@@H](C)CC)NC(=O)[C@@H]2CSSC[C@H](NC(=O)[C@H]([C@@H](C)CC)NC1=O)C(=O)N[C@@H](CO)C(=O)N[C@@H](CCCNC(=N)N)C(=O)N[C@@H](CO)C(=O)N[C@@H](CC(C)(C)C)C(=O)N1CCC[C@H]1C(=O)N1CCC[C@H]1C(=O)N[C@@H]([C@@H](C)CC)C(=O)N2C [Example 33] (cyclo([Abu]ICSRS[tBuAla]PPI[NMeC]IPD[Ahx]); disulfide 3-11)
Second: CC[C@@H]1NC(=O)CCCCCNC(=O)[C@H](CC(=O)O)NC(=O)[C@@H]2CCCN2C(=O)[C@H]([C@@H](C)CC)NC(=O)[C@H]2NC(=O)[C@H]([C@@H](C)CC)NC(=O)[C@@H]3CCCN3C(=O)[C@@H]3CCCN3C(=O)[C@H](CC(C)(C)C)NC(=O)[C@H](CO)NC(=O)[C@H](CCCNC(=N)N)NC(=O)[C@H](CO)NC(=O)[C@H](CSSC2(C)C)NC(=O)[C@H]([C@@H](C)CC)NC1=O [Example 38] (cyclo([Abu]ICSRS[tBuAla]PPI[Pen]IPD[Ahx]); disulfide 3-11)
The pIC50 of the first is 0.68 log units lower: 6.69 for the first, 7.37 for the second.

`CC[C@H](C)[C@@H]1NC(=O)[C@H](C)NC(=O)CCOCCOCCNC(=O)[C@H](CC(=O)O)NC(=O)[C@@H]2CCCN2C(=O)[C@H]([C@@H](C)CC)NC(=O)[C@H]2NC(=O)[C@H]([C@@H](C)CC)NC(=O)[C@@H]3CCCN3C(=O)[C@@H]3CCCN3C(=O)[C@H](CC(C)(C)C)NC(=O)[C@H](CO)NC(=O)[C@H](CCCNC(=N)N)NC(=O)[C@H](CO)NC(=O)[C@H](CSSC2(C)C)NC1=O` [Example 34] (cyclo(AICSRS[tBuAla]PPI[Pen]IPD[PEG2]); disulfide 3-11) and `CC[C@H](C)[C@@H]1NC(=O)[C@H](C)NC(=O)CCC(=O)NCCCOCCOCCOCCCNC(=O)[C@H](CC(=O)O)NC(=O)[C@@H]2CCCN2C(=O)[C@H]([C@@H](C)CC)NC(=O)[C@H]2NC(=O)[C@H]([C@@H](C)CC)NC(=O)[C@@H]3CCCN3C(=O)[C@@H]3CCCN3C(=O)[C@H](CC(C)(C)C)NC(=O)[C@H](CO)NC(=O)[C@H](CCCNC(=N)N)NC(=O)[C@H](CO)NC(=O)[C@H](CSSC2(C)C)NC1=O` [Example 63] (AICSRS[tBuAla]PPI[Pen]IPD; disulfide 3-11; linker N-C via X6) are within 0.2 log units of each other in pIC50: 7.37 for the first, 7.39 for the second.

`CC[C@H](C)[C@@H]1NC(=O)CNC(=O)CCCCCNC(=O)C[C@@H](C(N)=O)NC(=O)[C@@H]2CCCN2C(=O)[C@H]([C@@H](C)CC)NC(=O)[C@@H]2CSSC[C@H](NC1=O)C(=O)N[C@@H](CO)C(=O)N[C@@H](CCCNC(=N)N)C(=O)N[C@@H](CO)C(=O)N[C@@H](CC(C)(C)C)C(=O)N1CCC[C@H]1C(=O)N1CCC[C@H]1C(=O)N[C@@H]([C@@H](C)CC)C(=O)N2C` [Example 40] ([Ahx]GICSRS[tBuAla]PPI[NMeC]IPD-NH2; disulfide 4-12; lactam N-15) and `CC[C@H](C)[C@@H]1NC(=O)CNC(=O)CCCCCNC(=O)C[C@@H](C(N)=O)NC(=O)[C@@H]2CCCN2C(=O)[C@H]([C@@H](C)CC)NC(=O)[C@H]2NC(=O)[C@H]([C@@H](C)CC)NC(=O)[C@@H]3CCCN3C(=O)[C@@H]3CCCN3C(=O)[C@H](CC(C)(C)C)NC(=O)[C@H](CO)NC(=O)[C@H](CCCNC(=N)N)NC(=O)[C@H](CO)NC(=O)[C@H](CSSC2(C)C)NC1=O` [Example 48] ([Ahx]GICSRS[tBuAla]PPI[Pen]IPD-NH2; disulfide 4-12; lactam N-15) are within 0.2 log units of each other in pIC50: 7.14 for the first, 7.27 for the second.

Compared with `CC[C@H](C)[C@@H]1NC(=O)[C@H](C)NC(=O)CNC(=O)[C@H](C)NC(=O)C[C@@H](C(N)=O)NC(=O)[C@@H]2CCCN2C(=O)[C@H]([C@@H](C)CC)NC(=O)[C@H]2NC(=O)[C@H]([C@@H](C)CC)NC(=O)[C@@H]3C[C@@H]4CCCC[C@@H]4N3C(=O)[C@@H]3CCCN3C(=O)[C@H](CC(C)C)NC(=O)[C@H](CO)NC(=O)[C@H](CCCNC(=N)N)NC(=O)[C@H](CO)NC(=O)[C@H](CSSC2(C)C)NC1=O` [Example 41] (AGAICSRSLP[Oic]I[Pen]IPD-NH2; disulfide 5-13; lactam N-16), `CC[C@H](C)[C@@H]1NC(=O)CNC(=O)CNC(=O)[C@H](C)NC(=O)C[C@@H](C(N)=O)NC(=O)[C@@H]2CCCN2C(=O)[C@H]([C@@H](C)CC)NC(=O)[C@H]2NC(=O)[C@H]([C@@H](C)CC)NC(=O)[C@@H]3C[C@@H]4CCCC[C@@H]4N3C(=O)[C@@H]3CCCN3C(=O)[C@H](CC(C)C)NC(=O)[C@H](CO)NC(=O)[C@H](CCCNC(=N)N)NC(=O)[C@H](CO)NC(=O)[C@H](CSSC2(C)C)NC1=O` [Example 42] (AGGICSRSLP[Oic]I[Pen]IPD-NH2; disulfide 5-13; lactam N-16) is 0.63 log units lower in pIC50: 7.65 for the first, 7.02 for the second.

Going from `CC[C@H](C)[C@@H]1NC(=O)[C@H](C)NC(=O)CCCCCNC(=O)[C@H](CC(=O)O)NC(=O)[C@@H]2CCCN2C(=O)[C@H]([C@@H](C)CC)NC(=O)[C@@H]2CSSC[C@H](NC1=O)C(=O)N[C@@H](CO)C(=O)N[C@@H](CCCNC(=N)N)C(=O)N[C@@H](CO)C(=O)N[C@@H](CC(C)C)C(=O)N1CCC[C@H]1C(=O)N1CCC[C@H]1C(=O)N[C@@H]([C@@H](C)CC)C(=O)N2` [Example 45] (cyclo(AICSRSLPPICIPD[Ahx]); disulfide 3-11) to `CC[C@H](C)[C@@H]1NC(=O)CNC(=O)CNC(=O)[C@H](C)NC(=O)[C@@H](CC(=O)O)NC(=O)[C@@H]2CCCN2C(=O)[C@H]([C@@H](C)CC)NC(=O)[C@@H]2CSSC[C@H](NC1=O)C(=O)N[C@@H](CO)C(=O)N[C@@H](CCCNC(=N)N)C(=O)N[C@@H](CO)C(=O)N[C@@H](CC(C)(C)C)C(=O)N1CCC[C@H]1C(=O)N1CCC[C@H]1C(=O)N[C@@H]([C@@H](C)CC)C(=O)N2C` [Example 47] (cyclo(AGGICSRS[tBuAla]PPI[NMeC]IP[dD]); disulfide 5-13), the pIC50 rises from 6.48 to 7.14 (0.66 log units). The second is the more potent here.

`CC[C@H](C)[C@@H]1NC(=O)CNC(=O)CCCCCNC(=O)C[C@@H](C(N)=O)NC(=O)[C@@H]2CCCN2C(=O)[C@H]([C@@H](C)CC)NC(=O)[C@H]2NC(=O)[C@H]([C@@H](C)CC)NC(=O)[C@@H]3C[C@@H]4CCCC[C@@H]4N3C(=O)[C@@H]3CCCN3C(=O)[C@H](CC(C)C)NC(=O)[C@H](CO)NC(=O)[C@H](CCCNC(=N)N)NC(=O)[C@H](CO)NC(=O)[C@H](CSSC2(C)C)NC1=O` [Example 49] ([Ahx]GICSRSLP[Oic]I[Pen]IPD-NH2; disulfide 4-12; lactam N-15) and `CC[C@H](C)[C@@H]1NC(=O)[C@H](C)NC(=O)CCCCCNC(=O)[C@H]([C@@H](C)CC)NC(=O)[C@H]2NC(=O)[C@H]([C@@H](C)CC)NC(=O)[C@@H]3CCCN3C(=O)[C@@H]3CCCN3C(=O)[C@H](CC(C)(C)C)NC(=O)[C@H](CO)NC(=O)[C@H](CCCNC(=N)N)NC(=O)[C@H](CO)NC(=O)[C@H](CSSC2(C)C)NC1=O` [Example 72, N-{3-[(5aS,11S,14S,17S,20S,23R,26S,29S,39S,42R,45S,47aS)-26,39,45-tri[(2S)-butan-2-yl]-11-(2,2-dimethylpropyl)-14,20-bis(hydroxymethyl)-29,48,48-trimethyl-5,10,13,16,19,22,25,28,31,38,41,44,47-tridecaoxohexatetracontahydro-5H-23,42-(methanodithiomethano)dipyrrolo[2,1-1:2′,1′-o][1,4,7,10,13,16,19,22,25,28,31,34,37]tridecaazacyclotritetracontin-17-yl]propyl}guanidine] (cyclo(AICSRS[tBuAla]PPI[Pen]I[Ahx]); disulfide 3-11) are within 0.2 log units of each other in pIC50: 7.25 for the first, 7.27 for the second.

`CC[C@H](C)[C@@H]1NC(=O)CNC(=O)[C@H](CCCN)NC(=O)[C@H]([C@@H](C)CC)NC(=O)[C@H]2NC(=O)[C@H]([C@@H](C)CC)NC(=O)[C@@H]3CCCN3C(=O)[C@@H]3CCCN3C(=O)[C@H](CC(C)(C)C)NC(=O)[C@H](CO)NC(=O)[C@H](CCCNC(=N)N)NC(=O)[C@H](CO)NC(=O)[C@H](CSSC2(C)C)NC1=O` [Example 65, N-{3-[(5aS,11S,14S,17S,20S,23R,26S,32S,35S,38R,41S,43aS)-32-(3-aminopropyl)-26,35,41-tri[(2S)-butan-2-yl]-11-(2,2-dimethylpropyl)-14,20-bis(hydroxymethyl)-44,44-dimethyl-5,10,13,16,19,22,25,28,31,34,37,40,43-tridecaoxodotetracontahydro-5H-23,38-(methanodithiomethano)dipyrrolo[1,2-a:1′,2′-d][1,4,7,10,13,16,19,22,25,28,31,34,37]tridecaazacyclononatriacontin-17-yl]propyl}guanidine] (cyclo(CSRS[tBuAla]PPI[Pen]I[Orn]GI); disulfide 1-9) and `CC[C@H](C)[C@@H]1NC(=O)[C@@H](N)CCCNC(=O)[C@@H]2CCCN2C(=O)[C@H]([C@@H](C)CC)NC(=O)[C@H]2NC(=O)[C@H]([C@@H](C)CC)NC(=O)[C@@H]3CCCN3C(=O)[C@@H]3CCCN3C(=O)[C@H](CC(C)(C)C)NC(=O)[C@H](CO)NC(=O)[C@H](CCCNC(=N)N)NC(=O)[C@H](CO)NC(=O)[C@H](CSSC2(C)C)NC1=O` [Example 71, N-{3-[(6S,9S,12S,15S,18R,21S,24S,29aS,35S,38R,41S,43aS,48aS)-24-amino-21,35,41-tri[(2S)-butan-2-yl]-6-(2,2-dimethylpropyl)-9,15-bis(hydroxymethyl)-49,49-dimethyl-5,8,11,14,17,20,23,29,34,37,40,43,48-tridecaoxohexatetracontahydro-1H,5H-18,38-(methanodithiomethano)tripyrrolo[2,1-c:2′,1′-o:2″,1″-r][1,4,7,10,13,16,19,22,25,28,31,34,37]tridecaazacyclodotetracontin-12-yl]propyl}guanidine] (H-[Orn]ICSRS[tBuAla]PPI[Pen]IP; lactam 1-C; disulfide 3-11) are within 0.2 log units of each other in pIC50: 7.17 for the first, 7.27 for the second.
